According to the supplement of paper PMC9446081:
The whole screen tested about 39,000 compounds, of which about 220 (0.56%) showed activity. The list shows a part of the results.

test system: Escherichia coli K-12 BW25113; experiment: relative growth (OD600 normalised to plate interquartile mean) (fraction); higher = less growth inhibition, active = 0.2 or less; conditions: 50 µM; LB; incubation time: overnight (16-24 h)
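Further: static incubation at 37 °C against the wild-type strain, values averaged over two biological replicates.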

Row | Compound | relative growth
1 | C[C@@H]1CN([C@H](C)CO)C(=O)c2cccc(NC(=O)c3nc4ccccc4s3)c2O[C@@H]1CN(C)Cc1ccc(C(=O)Nc2ccccc2N)cc1 | inactive: 1.06
2 | NC[C@@H]1CC(=O)N(Cc2ccccc2)C1 | inactive: 0.976
3 | COc1c(Cl)c(C)c(C(=O)Oc2cc(C)c(C(=O)O)c(O)c2)c(O)c1Cl | inactive: 1.11
4 | C[C@@H]1CN([C@H](C)CO)C(=O)Cc2cc(NS(=O)(=O)c3ccccc3)ccc2O[C@@H]1CN(C)Cc1ccc(C(=O)O)cc1 | inactive: 0.983
5 | C[C@@H]1CN([C@H](C)CO)C(=O)c2cccc(NC(=O)C3CC3)c2O[C@@H]1CN(C)Cc1ccc(Oc2ccccc2)cc1 | inactive: 1.01
6 | O=C(C[C@@H]1C[C@@H]2c3cc(NC(=O)C4CCOCC4)ccc3O[C@@H]2[C@@H](CO)O1)NCCN1CCCCC1 | inactive: 0.998
7 | CC1(C)OC(=O)C2(C(=O)O1)[C@@H](c1ccc(-c3ccc(Br)cc3)cc1)CC(=O)C[C@H]2c1ccccc1 | inactive: 0.975
8 | C[C@H](CO)N1C[C@H](C)[C@H](CN(C)CC2CCCCC2)Oc2ccc(NC(=O)Nc3ccc(C(F)(F)F)cc3)cc2CC1=O | inactive: 0.983
9 | C[C@@H]1CN([C@@H](C)CO)S(=O)(=O)c2ccc(-c3cncnc3)cc2O[C@H]1CN(C)C(=O)Cc1cccnc1 | inactive: 0.98
10 | COC(=O)Cc1cc(=O)n(-c2ccccc2)[nH]1 | inactive: 1.04
11 | COc1ccc2c3c(n(c2c1)C)[C@@H](CO)N(C[C@]13CCN(CC1)S(=O)(=O)c1cn(cn1)C)C(=O)Nc1ccc(cc1)F | inactive: 1.02
12 | C[C@@H]1CCCCO[C@@H](CN(C)S(=O)(=O)c2ccc(F)cc2)[C@H](C)CN([C@@H](C)CO)C(=O)c2cc(NC(=O)NC3CCCCC3)ccc2O1 | inactive: 1.01
13 | C[C@@H]1CN([C@@H](C)CO)C(=O)c2cc(NC(=O)Cc3ccccc3)ccc2O[C@@H](C)CCCCO[C@H]1CN(C)CC1CCCCC1 | inactive: 0.978
14 | CCNC(=O)[C@H]1[C@H](CO)[C@H]2Cn3c(ccc(-c4ccccc4OC)c3=O)[C@H]2N1S(C)(=O)=O | inactive: 1.03
15 | O=C(O)CCC(=O)O.O=C(OC1CN2CCC1CC2)N1CCc2ccccc2C1c1ccccc1 (stereo not drawn) | inactive: 1.02
16 | CN1C(=O)c2cc(NC(=O)c3ccno3)ccc2OC[C@H]2O[C@@H](CC(=O)NC3Cc4ccccc4C3)CC[C@@H]21 | inactive: 1
17 | CCCNC(=O)N1C[C@@H](O)COC[C@@H]2O[C@H](CC(=O)NCCCN3CCOCC3)CC[C@H]21 | inactive: 0.987
18 | C[C@H]1CN([C@@H](C)CO)C(=O)Cc2cc(NC(=O)C3CCCCC3)ccc2O[C@@H]1CN(C)S(C)(=O)=O | inactive: 0.992
19 | CO[C@H]1CN(C)C(=O)c2cc(NC(=O)CC(F)(F)F)ccc2OC[C@H](C)N(C(=O)C2CCOCC2)C[C@H]1C | inactive: 0.99

Row | Compound | relative growth
20 | CCS(=O)(=O)N1CC[C@@H](O)[C@@H]1Cc1cnn(C)c1 | inactive: 0.987
21 | CO[C@H]1O[C@H](CO)[C@@H](OC(=O)Nc2ccccc2)[C@@H]2OC(=O)[C@@H](Cc3ccc4ccccc4c3)C/C=C/C[C@H](Cc3ccc4ccccc4c3)C(=O)O[C@@H]12 | inactive: 1
22 | COC(=O)CCCCCCC(=O)Nc1ccc([C@H]2O[C@H](CSc3nc(-c4ccccc4)c(-c4ccccc4)o3)C[C@H](c3ccc(NC(=O)CCCCCCC(=O)OC)cc3)O2)cc1 | inactive: 1.01
23 | CCOCC(=O)NS(=O)(=O)c1ccccc1 | inactive: 0.996
24 | C[C@H](CO)N1C[C@H](C)[C@H](CN(C)Cc2ccc(Cl)c(Cl)c2)Oc2ccc(NS(=O)(=O)c3ccc(Cl)cc3)cc2C1=O | inactive: 0.999
25 | CC(C)N1C[C@H](C)[C@@H](CN(C)Cc2ccc(Oc3ccccc3)cc2)Oc2c(NC(=O)c3ccncc3)cccc2C1=O | inactive: 1.03
26 | CO[C@H]1CN(C)C(=O)c2cc(NS(=O)(=O)c3cn(C)cn3)ccc2OC[C@@H](C)N(Cc2cccc(F)c2)C[C@H]1C | inactive: 1
27 | COc1cccc(S(=O)(=O)N(C)C[C@@H]2Oc3cc(C#CCC(C)C)ccc3S(=O)(=O)N([C@@H](C)CO)C[C@@H]2C)c1 | inactive: 1.01
28 | C[C@@H]1CCCCO[C@H](CN(C)C(=O)Nc2ccc(C(F)(F)F)cc2)[C@@H](C)CN([C@@H](C)CO)C(=O)c2cc(NS(=O)(=O)c3cn(C)cn3)ccc2O1 | inactive: 0.931
29 | C[C@@H]1CN([C@H](C)CO)C(=O)c2cc(NC(=O)Nc3ccc(F)cc3)ccc2O[C@@H](C)CCCCO[C@@H]1CN(C)C(=O)CCCN(C)C | inactive: 0.979
30 | CC(C)NC(=O)Nc1ccc2c(c1)C(=O)N([C@H](C)CO)C[C@@H](C)[C@@H](CN(C)Cc1ccc(C(F)(F)F)cc1)OCCCC[C@@H](C)O2 | inactive: 0.976
31 | C[C@H]1CN([C@@H](C)CO)C(=O)c2cc(C3=CCCC3)cnc2O[C@H]1CN(C)C(=O)Nc1ccc(C(F)(F)F)cc1 | inactive: 1.02
32 | Cc1noc(C)c1NC(=O)Nc1ccc2c(c1)C(=O)N([C@@H](C)CO)C[C@@H](C)[C@@H](CN(C)Cc1ccncc1)OCCCC[C@@H](C)O2 | inactive: 1.01
33 | C[C@H](CO)N1C[C@H](C)[C@@H](CN(C)Cc2ccc(Cl)c(Cl)c2)Oc2ccc(NC(=O)CCC(F)(F)F)cc2C1=O | inactive: 0.982
34 | CO[C@H]1CN(C)C(=O)c2cc(NC(=O)Nc3cccc(Cl)c3)ccc2OC[C@@H](C)N(C(=O)Nc2c(C)noc2C)C[C@H]1C | inactive: 0.99
35 | COc1ccc(S(=O)(=O)N(C)C[C@H]2Oc3ccc(NC(=O)CCN4CCOCC4)cc3C(=O)N([C@H](C)CO)C[C@H]2C)cc1 | inactive: 1
36 | C[C@H]1CN([C@@H](C)CO)C(=O)Cc2cc(NS(C)(=O)=O)ccc2O[C@@H]1CN(C)Cc1ccc(C(=O)O)cc1 | inactive: 0.994
37 | CCOC(=O)[C@H](Cc1c[nH]c2ccccc12)NC(=O)Cn1cc(C(=O)NO)nn1 | inactive: 0.968
38 | COc1ccc2c3c(n(c2c1)C)[C@@H](CO)N(C[C@]13CN(C1)S(=O)(=O)c1cn(cn1)C)C(=O)Nc1ccc(cc1)F | inactive: 0.998
